T1: UNK ZnF1-3 (human, UniProt Q9C0B0 31-174)
T1 sequence: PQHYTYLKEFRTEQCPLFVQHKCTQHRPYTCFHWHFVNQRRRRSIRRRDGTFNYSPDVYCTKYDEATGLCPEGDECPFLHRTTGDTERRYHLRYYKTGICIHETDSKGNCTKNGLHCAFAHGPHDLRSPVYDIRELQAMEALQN

B1: chr1:130485734:130485735:-_ENSMUSG00000045382_ENSMUST00000052172|mus_mus|FALSE|FALSE (ssRNA)
RNA: GGGAGUUCUACAGUCCGACGAUCGAUGAAGGAGUCGAUGCUGAUCCCCACAUAAUAUGGCAGCCAGCAGGCAAAGAAAGCUAGGAUGAGGAUGACUGUCGUCUUGAGGGCCUUGCGCUUCUGGUGGCCCUUGGAGUGUGACAGCAACAGAGGAUUGAGCAUCA
B2: chr6:32537486:32537487:-_ENSMUSG00000029765_ENSMUST00000115096|mus_mus|FALSE|FALSE (ssRNA)
RNA: GGGAGUUCUACAGUCCGACGAUCCCCAGCCCCGAACGCAAAUACUCCACCGAGGCACGGGGAAGCCACGAGCAGCAGAGAAAAACGGAGGGGGCCAAAUCAGAGCCUGCCGGGCUUGACAGCUCCUCUUGCAGCGUCCAAGGUCAACAGAGGAUUGAGCAUCA
B3: chr3:150285740:150285741:+_ENSG00000144895_ENST00000460851|hu_hu|FALSE|FALSE (ssRNA)
RNA: GGGAGUUCUACAGUCCGACGAUCAGCUUUUUUAUUCCACAGCAUUGUAACUUUAUCUGCCUUAAAGAAACUUUUAUUAGCUAAAGCUGCAUGAGGUCCAGCAAAGUUGGGGUACUGAUAUAAUCUAACAAAUGAAGGUGCACCCAACAGAGGAUUGAGCAUCA
B4: chr1:29069144:29069145:+_ENSG00000198492_ENST00000541996|perfect_dup|FALSE|FALSE (ssRNA)
RNA: GGGAGUUCUACAGUCCGACGAUCUGAGAAGUCAAUCCCACUGGGAAAGAAAUUAAAACCAUGCUGACCAAGAAAUGGAGUGCUACCUAGGGCUCCUGGUUGCCCAAACAUUGCAUCUGGUAGGAAGUGGGGCUCUCCGUUGCUCAACAGAGGAUUGAGCAUCA
B5: chr6:35489678:35489679:-_ENSMUSG00000029840_ENSMUST00000031866|mus_mus|FALSE|FALSE (ssRNA)
RNA: GGGAGUUCUACAGUCCGACGAUCGUGGGCCGGCGGGCCGGGCAGGAGCGGCGAUUAGGCCCGACGAGGGGACACGAGAAAGCGACGCGCCUCAGGCCGCUGAGCGGGCGAGACUGCGGGUCGCGGCUACGGUUCGGGCGGGAGCAACAGAGGAUUGAGCAUCA
B6: chr3:185639903:185639904:-_ENSG00000136527_ENST00000456380|hu_mus|FALSE|FALSE (ssRNA)
RNA: GGGAGUUCUACAGUCCGACGAUCUGUUAUAGAGAAAUCGACUCUAAUUCGACGCCCAUCAAGCUCCAUUCCAUUGGCACGUUCUUUAGCUUCCUUGGCAUCGUCUACAUUUUCAAAAUAUACAAAGGCAAAUCCUCUUGAACGCAACAGAGGAUUGAGCAUCA
B7: chr7:99638656:99638657:+_ENSG00000106261_ENST00000324306|hu_hu|FALSE|FALSE (ssRNA)
RNA: GGGAGUUCUACAGUCCGACGAUCAGCCCUCUAUAUAGAUUUAGGCUUAUGCUGACCUCGUUGUAAAAUCUGUAUUUAACUAAAAGUUAAUAAAAAUACAUAUGUUCAUUUUAAAAUAAUUACUGAUUUUGCUUGGCUAUCCCACAACAGAGGAUUGAGCAUCA
B8: chr4:107938938:107938939:-_ENSMUSG00000034636_ENSMUST00000043616|mus_hu|FALSE|FALSE (ssRNA)
RNA: GGGAGUUCUACAGUCCGACGAUCCCGGCUGAAGCAGCGCUCGUAAGGAUCCUCGAGGGAGAGAGUUAAUGAAUUCAGCACCAGGCACUGGAGAUUCUGCUGGAUCCAUUUGUUACUGCCAAGCCCACUGAUAAUGUCUGUAAUCAACAGAGGAUUGAGCAUCA
B9: chr5:128440902:128440903:+_ENSG00000066583_ENST00000173527|hu_mus|hu_hu_hu_mus_True|18_78 (ssRNA)
RNA: GGGAGUUCUACAGUCCGACGAUCUUGAACGGUGCUGCCAAGUCCUUUGGGGUAUUGUUCUGUUACAAUAACUGGAAUCCCUAAGAUCCGAGCUCCUUGCAACAGUCUCUGUCCCACGCUAAUAAUAUCCCCAAAGUAUUUGAUCAACAGAGGAUUGAGCAUCA
B10: chr12:48459454:48459455:-_ENSG00000079387_ENST00000551330|hu_mus|FALSE|FALSE (ssRNA)
RNA: GGGAGUUCUACAGUCCGACGAUCUGCUUUCUGCUCUUCAAUCCGGCGCAAUCUUUCCCGAGCUCGAGAGUCAUAAACGCUAGUUAAUUCUUUGAUCCAUAGCUCUGCCUGGAAGAACGUAGGGCUGGAAGCUGGAGUCUGAGACAACAGAGGAUUGAGCAUCA
B11: chr6:38652254:38652255:-_ENSG00000124767_ENST00000373365|hu_hu|hu_hu_hu_mus_False|88_98 (ssRNA)
RNA: GGGAGUUCUACAGUCCGACGAUCCGAGAACUUCAUAAUGGGAAAAUCACAUUUUUGCAGGAGGGUCAGUCCAAGAACCCUCGUAUAAAAAUCCAGGGACUUCUUAGGAUCCUUAAUUCUUAGCAUCGUUUGCUGCAGUAGAAACAACAGAGGAUUGAGCAUCA
B12: 91031602_91031722_1189_3pUTR_ENSMUSG00000070462_ENSMUST00000094216|mouse|control|control (ssRNA)
RNA: GGGAGUUCUACAGUCCGACGAUCCUUGCCCUUGCAGUGAUCACAGAUAGAUACCAGCCUCUUCCGCGGCUGCGAGCUGGCCCCGCCGACGGCGCUCCCAGGAGCCGGAGAAGCCGCCUCGCCAGUGGGCUUCCCGGCGCUGCCCAACAGAGGAUUGAGCAUCA
B13: chr18:67943652:67943653:+_ENSMUSG00000079614_ENSMUST00000025421|mus_hu|motif|central (ssRNA)
RNA: GGGAGUUCUACAGUCCGACGAUCAGUUGUCCUUUUAACCCAGUGGCUCUGUCCUCGCAGUUUAUCAUUUGAUUCUCCGGCGGUUUCUUCCCAUACAGCAGCUGUUCGGUCAAAAGAACAGGAAGCCAAAACCUGCCCAAAUUCCAACAGAGGAUUGAGCAUCA
B14: chr11:115359187:115359188:-_ENSMUSG00000020737_ENSMUST00000021083|mus_hu|FALSE|FALSE (ssRNA)
RNA: GGGAGUUCUACAGUCCGACGAUCACAUCUGGAACCAAAUUAUUUCUUCUUAAAAACACAGUACUAAGUGUCACAAAGCUUUCCCUCCAAUCUACUACUAGAAAACACUCAUGCCAUGGCCCACAGACCCAAGAGUCAAGGACACAACAGAGGAUUGAGCAUCA
B15: chr11:122931392:122931393:-_ENSG00000109971_ENST00000227378|hu_mus|FALSE|FALSE (ssRNA)
RNA: GGGAGUUCUACAGUCCGACGAUCUGUCAGAACCAUGGAGGACACUUCCUCUGGGUAGAAACUUUUUGUCUCCCCUUUGUAUUCCACUUGGACCUUGGGCCUGCCUGCAUCAUUCACCACCAUGAAGGGCCAGUGCUUCAUAUCCAACAGAGGAUUGAGCAUCA
B16: 108469022_108489850_1049_CDS_ENSG00000108018_ENST00000263054|human|control|control (ssRNA)
RNA: GGGAGUUCUACAGUCCGACGAUCGUCAAUGUAGCCUGGAAAAGGCUGAUUCCUGUUGGCCUCUGUACAGUUCUGCAUUCGGCAAGUUAGAUAAUGUGAAUGACCAUCCACAGUUCUGGCCUCAAGAUGCACAAGGUCUGGUUCCAACAGAGGAUUGAGCAUCA
B17: 71623340_71624446_1636_CDS_ENSMUSG00000026192_ENSMUST00000027384|mouse|control|control (ssRNA)
RNA: GGGAGUUCUACAGUCCGACGAUCCUUGUCCACCCAUUCCUUCUUCUCCGCCUCCGUGAGUAACUCAGGAACCUCUUCGAACAGUGCUUCCCAUUUCACCAGGUCUUCGCCCUCACCGAUAGUGCCGGUCACAUACUGAUCAAUCAACAGAGGAUUGAGCAUCA
B18: chr10:88205819:88205820:+_ENSMUSG00000060904_ENSMUST00000116234|mus_hu|motif|central (ssRNA)
RNA: GGGAGUUCUACAGUCCGACGAUCCUUCAUUUCAGGGGAGAAGAAUGGACUGAAUUACUGUCUGCUUUUUAAUGUUUCAACGGACCAUUCCAUUGCCUCAUCAAGGCCGGUGCCUUUGGUUGCUGACGUUUUGAAUAUCUGCCACAACAGAGGAUUGAGCAUCA
B19: chr8:15480645:15480646:+_ENSG00000104723_ENST00000503731|hu_hu|motif|central (ssRNA)
RNA: GGGAGUUCUACAGUCCGACGAUCCAUUCGGAAGAUUGAGCGUCUGGAACUCCAUUCCAUCAGCUGCUCUACUUUUUCAGCGGAAAGAUUCUCCUUUUUCUUCUGUCCUCCCCCGAGCUGGAUGCAGAGCAGCAGCAGCAGGAGCAACAGAGGAUUGAGCAUCA
B20: chr14:90871201:90871202:+_ENSG00000198668_ENST00000553542|hu_hu|motif|central (ssRNA)
RNA: GGGAGUUCUACAGUCCGACGAUCCCAAUACAUGCAGAUUUUGUGUGUGUGGACAGAAGGUACUUUUGACAUUCAGUUUUGCGGUAUAGAAACAGAAUGAAUAAAUGAACUUUUUUCUUUUUUCUUUUUUUUGCAAGAGGUAAGCAACAGAGGAUUGAGCAUCA
B21: chr17:61683753:61683754:+_ENSG00000136463_ENST00000258975|hu_mus|FALSE|FALSE (ssRNA)
RNA: GGGAGUUCUACAGUCCGACGAUCAAAAAAGUGGCGUGCUCCUUCAGCCAUCAUUCCCCCAUUCUUGUUCAGGAUAUAUUUAAUGUCCAGAUGGCACUUGGGACCACUGUUUGAUAACGCCUCAAUGAGCAGAGAAGAGCCUCCCAACAGAGGAUUGAGCAUCA
B22: 82834618_82834738_3251_CDS_ENSG00000038427_ENST00000343200|human|control|control (ssRNA)
RNA: GGGAGUUCUACAGUCCGACGAUCAGAUGGUGAAGUCUGGGUGUCCCUAAAUGCUGCAUCUCCAGAGCCUUCCAUCAUUACCGUUUCUUCUUUUGCUAUGGGAUGAGACACUGUUGAGUAUUCUCUAAAGUCACCACUGAAAUCCAACAGAGGAUUGAGCAUCA

The list shows a part of the results.

The assay concerns the target T1, UNK ZnF1-3. Briefly: nsRBNS (natural sequence RNA bind-n-seq); RBNS binding buffer (assumed for nsRBNS): 25 mM Tris pH 7.5, 150 mM KCl, 3 mM MgCl2, 0.01% Triton X-100, 500 ug/ml BSA, 20 U/ml SUPERase-In, 4 C; UNK is unkempt and MSI1 is Musashi-1; names of the RNAs are library labels; protein concentration not given here; high values mean tight binding.
In turn, B1 returned a binding signal of 0.997 enrichment R.

Take B2: the binding signal was 1.16 enrichment R.

Turning to B3, the binding signal was 1.73 enrichment R.

As to B4, the binding signal worked out at 1.18 enrichment R.

B5 gave a binding signal of 1.32 enrichment R.

B6 returned a binding signal of 0.503 enrichment R.

As for B7, the binding signal was 2.18 enrichment R.

On to B8, for which the binding signal was determined as 1.11 enrichment R.

On to B9, for which the binding signal was 0.509 enrichment R.

Turning to B10, the binding signal came out at 0.953 enrichment R.

On to B11, for which the binding signal turned out to be 1.07 enrichment R.

As for B12, the binding signal was determined as 0.846 enrichment R.

As for B13, the binding signal is 1.42 enrichment R.

In turn, B14 gave a binding signal of 1.56 enrichment R.

B15 returned a binding signal of 1.05 enrichment R.

B16 displayed a binding signal of 0.794 enrichment R.

On to B17, for which the binding signal is 0.754 enrichment R.

The molecule B18 registered a binding signal of 0.715 enrichment R.

B19: the binding signal was determined as 0.669 enrichment R.

With B20, the binding signal turned out to be 1.23 enrichment R.

As for B21, the binding signal was determined as 0.767 enrichment R.

For B22, the binding signal worked out at 0.876 enrichment R.

For the origin of these results see publication PMC12136788.
